# Test results reported in PubChem BioAssay (Tox21).
# “And” between values parts separate entries of the source, which are not always exact repeats. Identical values can stand only once. Some structures have more than one record in an assay (separate samples or runs), and their calls can disagree. The source made the active and inactive calls. Unless noted, calls follow the shape of the dose curve; as a rule, active = well fitted curve in the direction sought with a large enough effect in the repeat runs; inconclusive = weak or mixed curves; inactive = no such curve, though single readings can be large; an effect the other way counts as inactive or inconclusive.
# What was measured:
# [1] = biological target: Androgen receptor (Homo sapiens) (UniProt P10275); assay: qHTS assay to identify small molecule antagonists of the androgen receptor (AR) signaling pathway (AID 743035; active = well fitted inhibition curve with a large enough effect in the signal ratio in the repeat runs, not every such curve was filed as active; inconclusive = weak or mixed curves, or effect the other way; inactive = no such curve, though single readings can be large or run the other way; the % refers to the signal ratio; also: potency is read from the fitted curve at half-maximal effect); details: HEK293 AR-UAS-bla, R1881-stimulated, beta-lactamase FRET, 16 h; activity change, negative = inhibition: at 58.5 µM (top of the series) unless noted
# Sequence of UniProt P10275 (P10275 whole entry, looked up): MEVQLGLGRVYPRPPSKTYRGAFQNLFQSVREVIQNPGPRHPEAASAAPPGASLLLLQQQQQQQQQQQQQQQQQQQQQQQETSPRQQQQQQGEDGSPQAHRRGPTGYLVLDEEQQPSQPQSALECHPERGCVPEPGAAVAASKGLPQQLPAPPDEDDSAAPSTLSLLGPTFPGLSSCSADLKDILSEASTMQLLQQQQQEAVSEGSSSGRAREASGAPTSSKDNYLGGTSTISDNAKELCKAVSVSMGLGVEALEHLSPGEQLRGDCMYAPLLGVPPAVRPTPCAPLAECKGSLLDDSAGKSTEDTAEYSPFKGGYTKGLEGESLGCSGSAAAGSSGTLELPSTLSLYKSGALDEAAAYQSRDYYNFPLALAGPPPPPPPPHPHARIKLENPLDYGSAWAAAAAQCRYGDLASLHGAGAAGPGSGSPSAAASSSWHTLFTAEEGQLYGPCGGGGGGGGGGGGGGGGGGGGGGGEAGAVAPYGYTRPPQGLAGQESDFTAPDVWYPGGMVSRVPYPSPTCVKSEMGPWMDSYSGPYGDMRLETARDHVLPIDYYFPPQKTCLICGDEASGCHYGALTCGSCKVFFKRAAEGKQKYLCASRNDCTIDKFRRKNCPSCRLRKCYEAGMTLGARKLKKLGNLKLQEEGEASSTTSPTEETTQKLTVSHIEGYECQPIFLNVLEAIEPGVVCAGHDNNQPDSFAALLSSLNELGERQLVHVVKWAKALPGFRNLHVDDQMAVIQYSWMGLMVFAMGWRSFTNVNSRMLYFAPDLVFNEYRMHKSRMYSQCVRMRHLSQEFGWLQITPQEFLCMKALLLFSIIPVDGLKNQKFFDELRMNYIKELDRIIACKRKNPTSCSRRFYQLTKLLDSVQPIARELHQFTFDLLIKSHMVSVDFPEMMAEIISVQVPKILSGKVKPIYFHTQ
# Summary of the method: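 In this cell-based reporter screen, compounds were tested in concentration series against R1881-activated HEK293 cells expressing beta-lactamase under UAS control; after 16 h at 37C, FRET substrate was added and fluorescence read 2 h later.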
# [2] = biological target: Androgen receptor (Homo sapiens) (UniProt P10275); assay: qHTS assay to identify small molecule agonists of the androgen receptor (AR) signaling pathway using the MDA cell line (AID 743040; also: potency is read from the fitted curve at half-maximal effect; nearly all actives have a fitted effect of over 20% in size); details: MDA-kb2 AR-luc cells, MMTV luciferase, 16 h; activity change: at 70.3 µM (top of the series), stronger effect = higher value
# Summary of the method: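 Testing was done with the MDA-kb2 AR-luc line, a human breast carcinoma stably transfected with MMTV-luciferase containing AR and GR response elements. Cells were exposed 16 h at 37C before ONE-Glo luminescence detection.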
# [3] = qHTS assay to identify small molecule antagonists of the androgen receptor (AR) signaling pathway using the MDA cell line - cell viability counter screen (AID 743041; also: potency is read from the fitted curve at half-maximal effect; nearly all actives have a fitted effect of over 45% in size); details: MDA-kb2 viability, CellTiter-Fluor, 16 h, cells co-treated with R1881 androgen agonist; viability change, negative = cytotoxic: at 70.3 µM (top of the series) unless noted
# Summary of the method: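 Compound exposure lasted 16 h at 37C in MDA-kb2 AR-luc cells stimulated with R1881. Protease-based CellTiter-Fluor reagent was applied for the final 30 min and fluorescence measured.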
# [4] = qHTS assay to identify small molecule antagonists of the thyroid receptor (TR) signaling pathway - cell viability counter screen (AID 743064); details: GH3.TRE-Luc viability, CellTiter-Fluor, 24 h; activity change, negative = cytotoxic: at 70.3 µM (top of the series); also: potency is read from the fitted curve at half-maximal effect; nearly all actives have a fitted effect of over 50% in size
# Summary of the method: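 Compounds were tested on GH3.TRE-Luc cells in the presence of T3 at 1 nM final. Following 23.5 h at 37 °C, cell viability was quantified by CellTiter-Fluor.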
# [5] = biological target: Estrogen receptor (Homo sapiens) (UniProt P03372); assay: qHTS assay to identify small molecule antagonists of the estrogen receptor alpha (ER-alpha) signaling pathway (AID 743069; active = well fitted curve in the direction sought with a large enough effect in the signal ratio in the repeat runs, not every such curve was filed as active; inconclusive = weak or mixed curves, or effect the other way; inactive = no such curve, though single readings can be large or run the other way; the % refers to the signal ratio; also: potency is read from the fitted curve at half-maximal effect); details: HEK293 ER-alpha-UAS-bla, beta-lactamase ratio, antagonist mode; activity, negative = inhibition: at 69.4 µM (top of the series)
# Sequence of UniProt P03372 (P03372 whole entry, looked up): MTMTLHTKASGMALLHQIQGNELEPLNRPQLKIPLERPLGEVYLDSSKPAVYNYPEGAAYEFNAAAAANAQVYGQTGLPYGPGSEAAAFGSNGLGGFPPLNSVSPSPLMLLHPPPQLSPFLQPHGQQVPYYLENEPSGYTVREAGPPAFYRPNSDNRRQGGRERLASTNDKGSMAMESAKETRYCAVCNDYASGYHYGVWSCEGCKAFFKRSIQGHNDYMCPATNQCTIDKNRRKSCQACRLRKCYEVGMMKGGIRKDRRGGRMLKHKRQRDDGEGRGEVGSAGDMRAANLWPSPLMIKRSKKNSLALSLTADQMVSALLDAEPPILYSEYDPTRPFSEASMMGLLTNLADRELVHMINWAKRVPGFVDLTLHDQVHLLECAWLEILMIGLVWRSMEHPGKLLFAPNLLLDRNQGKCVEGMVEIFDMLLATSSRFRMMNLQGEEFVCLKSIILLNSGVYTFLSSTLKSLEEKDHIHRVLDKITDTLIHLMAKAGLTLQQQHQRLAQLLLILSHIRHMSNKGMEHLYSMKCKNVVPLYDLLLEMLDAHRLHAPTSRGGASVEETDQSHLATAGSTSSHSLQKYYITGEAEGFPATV
# Summary of the method: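 In this cell-based reporter format, GripTite HEK293 cells harbouring ER-alpha-UAS-bla were grown overnight with 2% charcoal-stripped FBS, dosed with DMSO-dissolved compounds, then challenged with 17beta-estradiol. After 18 hr at 37C, beta-lactamase activity was detected by FRET fluorescence.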
# [6] = qHTS assay to identify small molecule antagonists of the estrogen receptor alpha (ER-alpha) signaling pathway - cell viability counter screen (AID 743074; calls by dose curve; also: potency is read from the fitted curve at half-maximal effect; nearly all actives have a fitted effect of over 45% in size)
# [7] = biological target: Estrogen receptor (Homo sapiens) (UniProt P03372); assay: qHTS assay to identify small molecule agonists of the estrogen receptor alpha (ER-alpha) signaling pathway using the BG1 cell line (AID 743079); details: BG1Luc4E2 cells, ERE-luciferase agonist, 22 h; for Potency: activation: at 70.3 µM (top of the series) unless noted; also: potency is read from the fitted curve at half-maximal effect; as to all read-outs here: nearly all actives have a fitted effect of over 20% in size
# [8] = qHTS assay to identify small molecule antagonists of the estrogen receptor alpha (ER-alpha) signaling pathway using the BG1 cell line (AID 743080; calls by dose curve;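 also: BG1 cells stimulated with 17beta-estradiol alongside compound; nearly all actives have a fitted effect of over 25% in size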; also: potency is read from the fitted curve at half-maximal effect); details: BG1Luc4E2 ERE-luciferase antagonist mode, luminescence
# Summary of the method: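 Endogenous full-length ER-alpha in BG1-Luc-4E2 cells drives a stably integrated 4×ERE luciferase gene; compounds were tested against 17beta-estradiol over 21.5 h, with luminescence and multiplexed viability fluorescence recorded.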
# [9] = qHTS assay to identify small molecule antagonists of the estrogen receptor alpha (ER-alpha) signaling pathway using the BG1 cell line - cell viability counter screen (AID 743081);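 also: compound given together with 17beta-estradiol as the ER stimulus; potency is read from the fitted curve at half-maximal effect; nearly all actives have a fitted effect of over 45% in size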
# [10] = biological target: Aromatase (Homo sapiens) (UniProt P11511); assay: qHTS assay to identify aromatase inhibitors (AID 743083); also: potency is read from the fitted curve at half-maximal effect; nearly all actives have a fitted effect of over 55% in size
# Sequence of UniProt P11511 (P11511 whole entry, looked up): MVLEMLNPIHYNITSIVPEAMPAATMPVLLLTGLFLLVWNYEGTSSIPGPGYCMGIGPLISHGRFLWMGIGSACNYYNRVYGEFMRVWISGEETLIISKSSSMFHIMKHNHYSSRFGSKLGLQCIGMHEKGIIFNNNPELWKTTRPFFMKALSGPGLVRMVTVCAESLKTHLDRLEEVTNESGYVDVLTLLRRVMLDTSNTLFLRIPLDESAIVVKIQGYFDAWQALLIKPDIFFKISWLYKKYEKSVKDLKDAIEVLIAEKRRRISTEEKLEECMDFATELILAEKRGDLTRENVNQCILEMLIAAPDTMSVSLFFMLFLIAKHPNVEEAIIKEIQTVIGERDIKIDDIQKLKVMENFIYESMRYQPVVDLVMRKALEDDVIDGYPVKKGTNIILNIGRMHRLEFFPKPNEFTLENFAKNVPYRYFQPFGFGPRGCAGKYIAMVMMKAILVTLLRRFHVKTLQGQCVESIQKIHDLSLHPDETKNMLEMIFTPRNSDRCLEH
# [11] = qHTS assay to identify aromatase inhibitors - cell viability counter screen (AID 743084);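 also: cells stimulated with testosterone during compound exposure; potency is read from the fitted curve at half-maximal effect; nearly all actives have a fitted effect of over 55% in size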
# [12] = biological target: Aryl hydrocarbon receptor (Homo sapiens) (UniProt P35869); assay: qHTS assay to identify small molecule that activate the aryl hydrocarbon receptor (AhR) signaling pathway (AID 743085); also: potency is read from the fitted curve at half-maximal effect; nearly all actives have a fitted effect of over 15% in size
# Sequence of UniProt P35869 (P35869 whole entry, looked up): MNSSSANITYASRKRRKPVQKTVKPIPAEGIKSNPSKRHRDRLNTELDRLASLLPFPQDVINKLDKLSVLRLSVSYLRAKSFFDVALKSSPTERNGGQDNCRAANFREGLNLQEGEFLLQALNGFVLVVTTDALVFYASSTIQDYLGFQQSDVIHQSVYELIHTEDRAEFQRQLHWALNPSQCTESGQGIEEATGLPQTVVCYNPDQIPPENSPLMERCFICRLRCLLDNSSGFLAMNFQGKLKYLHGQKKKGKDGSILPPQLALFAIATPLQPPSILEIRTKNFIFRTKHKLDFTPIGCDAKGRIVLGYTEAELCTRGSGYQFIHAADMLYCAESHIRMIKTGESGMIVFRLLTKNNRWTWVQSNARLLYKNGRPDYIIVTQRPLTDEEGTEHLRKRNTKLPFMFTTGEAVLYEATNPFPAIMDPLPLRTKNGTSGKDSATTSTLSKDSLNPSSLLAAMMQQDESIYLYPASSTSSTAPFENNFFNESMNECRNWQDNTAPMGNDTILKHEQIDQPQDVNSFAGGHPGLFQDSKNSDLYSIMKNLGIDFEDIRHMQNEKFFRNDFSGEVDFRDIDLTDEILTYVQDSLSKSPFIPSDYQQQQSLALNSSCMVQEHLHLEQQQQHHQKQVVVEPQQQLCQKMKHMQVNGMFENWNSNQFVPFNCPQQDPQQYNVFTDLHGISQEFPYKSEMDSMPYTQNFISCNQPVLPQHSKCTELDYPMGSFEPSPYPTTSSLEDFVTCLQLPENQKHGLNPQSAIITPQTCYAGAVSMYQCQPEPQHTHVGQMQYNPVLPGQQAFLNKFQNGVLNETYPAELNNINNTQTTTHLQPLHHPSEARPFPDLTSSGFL
# Summary of the method: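 24 h compound exposure, 37C, HepG2-derived HG2L7.5c1 cells with DRE-responsive luciferase. Readouts: fluorescence viability, then luminescence at room temperature after 30 min.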
# [13] = biological target: Peroxisome proliferator-activated receptor gamma (Homo sapiens) (UniProt P37231); assay: qHTS assay to identify small molecule antagonists of the peroxisome proliferator-activated receptor gamma (PPARg) signaling pathway (AID 743191; calls by dose curve; also: nearly all actives have a fitted effect of over 30% in size; also: potency is read from the fitted curve at half-maximal effect; as to ratio activity, negative = inhibition: % is scaled to controls: 0 for no effect and ±100 for the full control effect); details: HEK293H PPARg-UAS-bla, beta-lactamase ratio, antagonist, 17 h; ratio activity, negative = inhibition: at 62.6 µM (top of the series) unless noted
# Sequence of UniProt P37231 (P37231 whole entry, looked up): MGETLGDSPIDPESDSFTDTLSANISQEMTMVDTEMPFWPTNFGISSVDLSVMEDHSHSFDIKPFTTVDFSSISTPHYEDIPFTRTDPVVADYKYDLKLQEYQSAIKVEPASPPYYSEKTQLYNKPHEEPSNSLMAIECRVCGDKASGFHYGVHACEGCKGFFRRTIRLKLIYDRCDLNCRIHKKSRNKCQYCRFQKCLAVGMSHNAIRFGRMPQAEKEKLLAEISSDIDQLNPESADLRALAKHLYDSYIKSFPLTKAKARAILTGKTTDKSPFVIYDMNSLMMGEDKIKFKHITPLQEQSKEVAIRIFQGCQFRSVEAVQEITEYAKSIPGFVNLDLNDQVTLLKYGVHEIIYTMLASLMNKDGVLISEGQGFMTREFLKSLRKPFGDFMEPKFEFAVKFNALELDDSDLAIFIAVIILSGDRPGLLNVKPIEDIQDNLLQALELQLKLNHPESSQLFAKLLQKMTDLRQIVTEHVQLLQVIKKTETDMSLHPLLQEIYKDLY
# Summary of the method: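 GeneBLAzer PPARg UAS-bla HEK293H cells, 5 h post-plating, exposed to compounds 17 h at 37C. LiveBLAzer B/G FRET substrate added for 1 h at room temperature; beta-lactamase reporter read by fluorescence intensity.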
# [14] = biological target: Androgen receptor (Homo sapiens) (UniProt P10275); assay: qHTS assay to identify small molecule agonists of the androgen receptor (AR) signaling pathway (AID 743036; active = well fitted activation curve with a large enough effect in the signal ratio in the repeat runs, with a control signal flat, not every such curve was filed as active; inconclusive = weak or mixed curves, or effect the other way; inactive = no such curve, though single readings can be large or run the other way; the % refers to the signal ratio; also: % is scaled to controls: 0 for no effect and ±100 for the full control effect); details: HEK293 AR-UAS-bla GripTite, beta-lactamase FRET ratio, 16 h; activation: at 62.4 µM (top of the series) unless noted
# Summary of the method: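 Beta-lactamase under UAS control, stably integrated in HEK293 GripTite cells, reports receptor activation. After 16 h compound treatment, cells received FRET substrate for 2 h at room temperature before fluorescence reading.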
# [15] = biological target: Androgen receptor (Homo sapiens) (UniProt P10275); assay: qHTS assay to identify small molecule antagonists of the androgen receptor (AR) signaling pathway using the MDA cell line (AID 743042; also: potency is read from the fitted curve at half-maximal effect; nearly all actives have a fitted effect of over 55% in size)
# Summary of the method: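 MDA-kb2 breast carcinoma cells carrying MMTV-luciferase (AR/GR responsive) were co-treated with compounds and the agonist R1881 for 16 h at 37C. Inhibition read as ONE-Glo luminescence; CellTiter-Fluor fluorescence measured in parallel for cytotoxicity.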
# [16] = test system: thyroid hormone receptor (rat, GH3 cells); assay: qHTS assay to identify small molecule agonists of the thyroid receptor (TR) signaling pathway (AID 743066; calls by dose curve; also: potency is read from the fitted curve at half-maximal effect; as to activation: % is scaled to controls: 0 for no effect and ±100 for the full control effect); details: GH3.TRE-Luc cells, TR agonist luciferase, 24 h; activation: at 83.9 µM (top of the series) unless noted
# [17] = biological target: Peroxisome proliferator-activated receptor gamma (Homo sapiens) (UniProt P37231); assay: qHTS assay to identify small molecule agonists of the peroxisome proliferator-activated receptor gamma (PPARg) signaling pathway (AID 743094; active = well fitted activation curve with a large enough effect in the signal ratio in the repeat runs, not every such curve was filed as active; inconclusive = weak or mixed curves, or effect the other way; inactive = no such curve, though single readings can be large or run the other way; the % refers to the signal ratio; also: potency is read from the fitted curve at half-maximal effect; as to activation: % is scaled to controls: 0 for no effect and ±100 for the full control effect); details: HEK293H PPARg-UAS-bla, beta-lactamase FRET ratio, 17 h
# Summary of the method: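 Cell-based bla reporter, HEK293H background, PPARg-driven UAS. Pre-incubation 5 h, 37C, 5% CO2. Compound 17 h, 37C. Substrate 1 h RT; fluorescence.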
# [18] = qHTS assay to identify small molecule antagonists of the thyroid receptor (TR) signaling pathway (AID 743065); also: potency is read from the fitted curve at half-maximal effect; nearly all actives have a fitted effect of over 55% in size
# Summary of the method: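 GH3.TRE-Luc rat pituitary cells (two TREs driving luciferase) were dosed with compound, then stimulated with 1 nM T3 (final) for 23.5 h at 37 C. ONE-Glo luminescence was the read-out, with CellTiter-Fluor fluorescence as the cytotoxicity counter-screen.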
# [19] = biological target: Estrogen receptor (Homo sapiens) (UniProt P03372); assay: qHTS assay to identify small molecule agonists of the estrogen receptor alpha (ER-alpha) signaling pathway (AID 743075; calls by dose curve; also: potency is read from the fitted curve at half-maximal effect); details: HEK293 ER-alpha-UAS-bla, beta-lactamase FRET ratio, 18 h; activation: at 70.1 µM (top of the series)
# [20] = qHTS assay to identify small molecule that activate the aryl hydrocarbon receptor (AhR) signaling pathway - cell viability counter screen (AID 743086); also: potency is read from the fitted curve at half-maximal effect; nearly all actives have a fitted effect of over 45% in size
# Summary of the method: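 HepG2-AhR-luc (HG2L7.5c1) cells, 4000/well, treated 24 h at 37 C with compound; viability measured as CellTiter-Fluor fluorescence after 30 min in the same wells as the luciferase read.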
# [21] = activation: at 57 µM (top of the series) unless noted
# Tags tell the direction and shape of the fitted curve or compound fluorescence and quenching.
smiles,measurement,setting,value
CN(C)c1ccc(N)cc1,Potency,[1],active: 24 µM
same,Potency,[2],"inconclusive: 4.74 µM [activator, full curve]"
same,Potency,[3],active: 59.6 µM
same,Potency,[4],active: 59.6 µM
same,Potency,[5],active: 60.2 µM [inconclusive]
same,Potency,[6],"inconclusive: 53.6 µM [cytotoxic, single point]"
same,Potency,[7],active: 7.51 µM
same,Potency,"[8]; activity change, negative = inhibition: at 70.3 µM (top of the series) unless noted","inconclusive: 7.51 µM [rising, partial curve]"
same,Potency,[9],"inconclusive: 66.9 µM [cytotoxic, single point]"
same,Potency,[10],"inconclusive: 75.1 µM [inhibitor, single point]"
same,Potency,[11],active: 66.9 µM
same,Potency,[12],active: 18.9 µM
same,Potency,[13],inconclusive: 53.6 µM [activator]
O=[N+]([O-])c1cc([N+](=O)[O-])c2ccccc2c1,Potency,[1],inconclusive: 43.6 µM
same,activation,[14],inconclusive: -13.6%
same,Potency,[15],inconclusive: 4.53 µM [inhibitor]
same,Potency,[4],inconclusive: 7.27 µM [cytotoxic]
same,Potency,[16],inactive
same,Potency,[6],"inconclusive: 4.9 µM [cytotoxic, full curve, poor fit]"
same,Potency,[10],inconclusive: 34.4 µM [inhibitor]
same,Potency,[11],"inconclusive: 54.5 µM [cytotoxic, partial curve, poor fit]"
same,Potency,[12],active: 16.3 µM
same,activation,[17]; [21],inconclusive: 9.59%
same,"ratio activity, negative = inhibition",[13],inconclusive: -28.3%
CCCCNC(=O)n1c(NC(=O)OC)nc2ccccc21,"activity change, negative = inhibition",[1],inconclusive: -25.1% and inconclusive: -28.2%
same,Potency,[4],"inconclusive: 6.08 µM [cytotoxic, full curve] and inconclusive: 6.86 µM [cytotoxic, single point]"
same,Potency,[18],active: 7.66 µM and active: 8.63 µM
same,"activity, negative = inhibition",[5],inconclusive: -25.7%
same,Potency,[6],"inconclusive: 21.8 µM [rising, single point]"
same,Potency,[7],"inconclusive: 48.3 µM [activator, partial curve]"
C[C@H]1CCCC(=O)CCC/C=C/c2cc(O)cc(O)c2C(=O)O1,Potency,[14],inactive
same,Potency,[3],"inconclusive: 52.5 µM [cytotoxic, partial curve]"
same,Potency,[15],"inconclusive: 25.2 µM [inhibitor, single point]"
same,Potency,[6],"inconclusive: 47.2 µM [rising, single point]"
same,Potency,[19],active: 13.3 nM [inconclusive] and active: 71.5 nM [inconclusive]
same,activation,[7]; at 32.5 µM (top of the series),active: -13.6%
same,activation,[7]; at 70.3 µM (top of the series),active: -34.9%
same,Potency,[9],"inconclusive: 46.8 µM [cytotoxic, partial curve] and inconclusive: 20 µM [cytotoxic, partial curve, poor fit]"
same,Potency,[11],"inconclusive: 25.2 µM [cytotoxic, partial curve]"
same,Potency,[20],active: 37.1 µM
same,activation,[17]; [21],inconclusive: -17.6%
same,activation,[17]; at 26.2 µM (top of the series),inactive: -4.5%
same,Potency,[13],inconclusive: 53 µM and inactive
[O]=[Cr](=[O])([OH])[O][Cr](=[O])(=[O])[OH],Potency,[3],"inconclusive: 55 µM [cytotoxic, partial curve]"
same,Potency,[15],"inconclusive: 69.2 µM [inhibitor, single point]"
same,Potency,[16],"inconclusive: 1.93 µM [inhibitor, partial curve, poor fit]"
same,activation,[16],inconclusive: -8.92% [phenotype inactive] and inconclusive: -8.04% [phenotype inactive]
same,Potency,[5],"inconclusive: 35 µM [fluorescent, partial curve]"
same,"activity, negative = inhibition",[5],inconclusive: -69.8%
same,Potency,[6],"inconclusive: 6.74 µM [cytotoxic, partial curve, poor fit] and inconclusive: 15.6 µM [cytotoxic, full curve, poor fit] and inconclusive: 24.5 µM [cytotoxic, partial curve]"
same,Potency,[19],"inconclusive: 17.5 µM [falling, full curve]"
same,"activity change, negative = inhibition",[8]; at 70.3 µM (top of the series),inconclusive: -21.7%
same,"activity change, negative = inhibition",[8]; at 95 µM (top of the series),inconclusive: -15.5%
same,Potency,[9],"inconclusive: 55 µM [cytotoxic, partial curve, poor fit] and inconclusive: 61 µM [cytotoxic, partial curve]"
same,Potency,[11],"inconclusive: 13.3 µM [cytotoxic, partial curve, poor fit] and inconclusive: 7.77 µM [cytotoxic, partial curve] and inconclusive: 485 nM [cytotoxic, partial curve, poor fit]"
same,Potency,[17]; [21],"inconclusive: 1.09 µM [rising, full curve]"
same,activation,[17]; at 57 µM (top of the series),inconclusive: -0.729%
same,activation,[17]; at 78.9 µM (top of the series),inconclusive: -12.6%
same,Potency,[13],"inconclusive: 19.7 µM [rising, full curve, poor fit] and inconclusive: 1.95 µM [rising, full curve, poor fit]"
